From ChEMBL document CHEMBL1201862, “PubChem BioAssay data set” (2004) come the findings set out here.

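Cells were grown in 96-well plates and exposed to each compound for 48 hours at five concentrations; endpoints were interpolated linearly between bracketing concentrations, or set to the highest concentration if not reached. The concentration for 50% growth inhibition is given as GI50.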 The source made the active and inactive calls. No stated cut-off is given here; in the data, active = GI50 up to about 1.1 µM and inactive = higher.

The test system of the assay is NCI-H322M. In words: growth of human tumour cells (NCI), 48 h.
For `Nc1cc(S(=O)(=O)O)cc2ccc(S(=O)(=O)O)cc12`, the GI50 was inactive: > 100 µM.

For `O=C(O)/C(=C\c1ccccc1)Cc1ccccc1`, the GI50 is inactive: > 100 µM.

As for `O=[As](O)(O)c1ccc2nc3cc([As](=O)(O)O)ccc3nc2c1`, the GI50 is inactive: > 100 µM.

For `COc1ccc(NC(=S)C#N)cc1`, the GI50 is inactive: > 100 µM.

Turning to `O=C(c1ccc(Cl)cc1)c1cnc(Nc2ccccc2Cl)s1`, the GI50 was inactive: 22.1 µM.

On to `O=C1Nc2ccccc2/C1=N/Nc1ccccc1Cl`, for which the GI50 is inactive: 44.1 µM.

Consider `CCCC(=O)NC1=C(Cl)C(=O)c2ccccc2C1=O`, for which the GI50 was inactive: 15.1 µM.

For the molecule `CC(C)=NNc1cnnc2ccc([N+](=O)[O-])cc12`, the GI50 is inactive: > 100 µM.

As to `CCCc1cn2c(/C=N/NC(=N)N)c(-c3ccc([N+](=O)[O-])cc3)nc2s1`, the GI50 is inactive: 1.77 µM.

Consider `N#Cc1ccccc1NC(=O)C(=O)C1NC(=S)NC1=O` (configuration not stated), for which the GI50 is inactive: > 100 µM.

For `COc1cc2c3c(n(C)c(=O)c2cc1OC)-c1cc2c(cc1/C3=C\CCCI)OCO2`, the GI50 is inactive: > 4.65 µM.

In the case of `Cc1ccc(N(C(=O)CC(=O)N2N=C(c3ccccc3)C(/N=N/c3ccc([N+](=O)[O-])cc3)C2=O)C(=O)c2ccc(Cl)cc2)cc1` (configuration not stated), the GI50 was inactive: 8.3 µM.

With `Cc1ccc(S(=O)(=O)NC(=O)NC(Cc2ccc(O)c(O)c2)C(=O)O)cc1` (configuration not stated), the GI50 is inactive: > 100 µM.

On to `COc1ccc(Nc2nc3ccccc3nc2C(=O)O)cc1OC`, for which the GI50 was inactive: > 100 µM.

`Oc1ncnc2c1CCCN2`: the GI50 was inactive: > 100 µM.

As to `CC(=O)c1ccccc1NC(=O)C(=O)C(C(=O)c1ccccc1-c1ccccc1)C1OC(=O)c2ccccc21` (configuration not stated), the GI50 was inactive: 22.5 µM.

As to `C[C@]12CC(C=O)C(=O)C(O)=C1CC[C@@H]1C2CC[C@@]2(C)C1CC[C@]2(C)O` (some centres not stated), the GI50 was inactive: 19.1 µM.

`N#CCC(=O)c1cc(OCc2cc(OCc3ccc(Br)cc3)cc(OCc3ccc(Br)cc3)c2)cc(OCc2cc(OCc3ccc(Br)cc3)cc(OCc3ccc(Br)cc3)c2)c1`: the GI50 was inactive: > 100 µM.

Consider `O=c1[nH]c2cc([N+](=O)[O-])ccc2nc1/C(=N/Nc1ccccc1)C(O)c1ccccc1Cl` (configuration not stated), for which the GI50 was inactive: 36.1 µM.

As to `Cc1c(C(=N)N)oc2ccccc12`, the GI50 was inactive: > 100 µM.

`COC(=O)c1cc(CC2Cc3cc4c(cc3C2)CCC4)cc2c1CCC2`: the GI50 is inactive: 83.2 µM.

On to `CNC(C#N)c1ccc(OC)cc1` (configuration not stated), for which the GI50 was inactive: > 100 µM.

As to `C=CCOCCC(CC=C)C(=O)CC(=O)OC` (configuration not stated), the GI50 was inactive: > 100 µM.

In the case of `COc1cc(CC2C(=O)OCC2Cc2ccc(OC)c(OC)c2)ccc1O` (configuration not stated), the GI50 was inactive: > 100 µM.

Regarding `CN(C(=O)C12C3(C(=O)O)C4C5(C(=O)O)C3C1(C(=O)O)C5C42C(=O)O)C(C)(C)C` (configuration not stated), the GI50 was inactive: > 100 µM.

In the case of `CCOC(=O)CCC(=O)C1c2cccc(O)c2C(=O)c2c(O)cc(C)cc21` (configuration not stated), the GI50 is active: 0.561 µM.

In the case of `O=C(O/N=C1/CCCC/C1=C\c1ccccc1)c1ccccc1`, the GI50 is inactive: > 100 µM.

For `CC(=O)Oc1ccc2c(c1OC(C)=O)CCC1C2=CC[C@]2(C)C(=O)CCC12` (some centres not stated), the GI50 is inactive: 21.7 µM.

Turning to `C=CCC1(Sc2ccccn2)Sc2ccc3ccccc3c2-c2c(ccc3ccccc23)S1`, the GI50 was inactive: > 100 µM.

In the case of `N#Cc1c([N+](=O)[O-])cc(C(F)(F)F)cc1[N+](=O)[O-]`, the GI50 is inactive: 16.9 µM.

`O=C(NCCNCCO)N/N=C/c1ccc(Cl)cc1`: the GI50 is inactive: 63.2 µM.

For `COC(=O)C1(C(=O)OC)Cc2ccc(C)cc2C2=C1C(=O)c1ccccc1C2=O`, the GI50 is inactive: > 100 µM.

As to `CC(=O)Oc1ccc(-c2c(OC(C)=O)c(OC(C)=O)c(-c3ccc(OC(C)=O)c(OC(C)=O)c3)c(OC(C)=O)c2OC(C)=O)cc1`, the GI50 is inactive: 18.9 µM.

Regarding `Nc1ccc(C(=O)N2CCC[C@H]2CO)c(N)c1`, the GI50 was inactive: > 100 µM.

With `COC(CO[Si](C)(C)N[Si](C)(C)OCC(OC)c1ccccc1)c1ccccc1` (configuration not stated), the GI50 is inactive: > 100 µM.

Consider `C=CCC(CNC(=O)OCc1ccccc1)O[Si](C)(C)C(C)(C)C` (configuration not stated), for which the GI50 is inactive: 55.1 µM.

`O=C1CCN2CCC(=O)c3c2c(cc2ccccc32)N1`: the GI50 is inactive: > 100 µM.

`CCCCCCCCCCC(O)CCCCCCC(=O)O` (configuration not stated): the GI50 was inactive: 20.2 µM.

Take `COc1cc(NP(=O)(Oc2ccccc2)Oc2ccccc2)ccc1Nc1c2ccccc2nc2c1[nH]c1ccccc12`: the GI50 was inactive: 17 µM.

Turning to `Cc1ncc(C/N=C/c2ccc(Cl)cc2)c(N)n1`, the GI50 was inactive: > 100 µM.

With `CSc1nc(Cl)c(Br)c(Sc2nc(N)nc3nc[nH]c23)n1`, the GI50 is inactive: 10.1 µM.

As for `COc1ccc2[nH]c3c(c2c1)CCc1ccccc1-3`, the GI50 is inactive: > 100 µM.

As for `O=C(Nc1nc2ncn(CCI)c2c(=O)[nH]1)c1ccccc1`, the GI50 is inactive: > 100 µM.

Consider `N#Cc1cnn2c1n[n+]([O-])c1ccc(Cl)cc12`, for which the GI50 was inactive: 5.08 µM.

Take `Cc1ccc(F)c2[nH]c(-c3ccccc3)cc(=O)c12`: the GI50 was inactive: 4.9 µM.

Consider `O=C1ON=C2C3CC4CC12CC1(C3)C(=O)ON=C41`, for which the GI50 was inactive: > 100 µM.

With `CN1CCN(c2ccc(-n3cc(C(=O)O)c(=O)c4cc(F)c(N5CCN(C)CC5)cc43)nc2)CC1`, the GI50 is inactive: > 100 µM.

As for `CCOC(=O)/C=C(\C(=O)OCC)n1ccc(=O)n(Cc2cnnn2COCCOC(C)=O)c1=O`, the GI50 is inactive: 29.7 µM.

Take `Cc1ccccc1SC(/C=C/NNC1=NN=C(c2ccccc2)C(c2ccccc2)N1)c1ccccc1` (configuration not stated): the GI50 was inactive: 15.3 µM.

For the molecule `O=C(Cc1ccccc1)Oc1ccc2c(-c3ccccc3)c(C(=O)Nc3ccc(Cl)cc3)c(=O)oc2c1`, the GI50 was inactive: > 100 µM.

As for `CCCCCCCCCCCCCCCCCC(=O)OCC(C[As](=O)(O)O)OC(=O)CCCCCCCCCCCCCCCCC` (configuration not stated), the GI50 is inactive: > 100 µM.

For `C/C(=N\c1c2ccccc2nc2ccccc12)N(C)C`, the GI50 is inactive: 28.6 µM.

As for `COc1c(O)ccc(C2=Cc3ccc(O)cc3OC2)c1OC`, the GI50 is inactive: 27 µM.

With `O=C1/C(=C/c2ccccc2)CN(C(=O)Oc2ccccc2)C/C1=C\c1ccccc1`, the GI50 is inactive: > 100 µM.

Consider `Cc1c[n+]([O-])c2ccccc2[n+]1[O-]`, for which the GI50 was inactive: > 100 µM.

In the case of `O=C(OCc1ccccc1)N1N=NC2C3CC(OCc4ccccc4)(OCc4ccccc4)C(O3)C21` (configuration not stated), the GI50 is inactive: 37.2 µM.

Turning to `Cc1cc2occ(-c3ccc(Cl)cc3)c2c(=O)o1`, the GI50 was inactive: > 100 µM.

As to `CCc1cccc(CC)c1NC(=O)C1=CNC(C)=C(C(=O)Nc2c(CC)cccc2CC)C1c1ccc(O)c(OC)c1` (configuration not stated), the GI50 was inactive: 42.7 µM.

For `O=Cc1ccc(CCl)cc1`, the GI50 was inactive: 23.4 µM.

For the molecule `CN1CCN(C2=C(Cl)C3(OCCS3)C(F)(F)C2(F)F)CC1` (configuration not stated), the GI50 is inactive: > 100 µM.

Turning to `Cc1cc(NS(=O)(=O)c2ccc(Nc3c4ccccc4nc4c(C(=O)N5CCN(CCOS(C)(=O)=O)CC5)cccc34)cc2)no1`, the GI50 was inactive: > 100 µM.

Turning to `COc1ccc2nccc(NCCCN3CCN(CCCNc4ccnc5ccc(OC)cc45)CC3)c2c1`, the GI50 is active: 0.48 µM.

As for `CC(C)N1CCC2(CC1)NNc1ncccc1-n1cccc12`, the GI50 is inactive: > 100 µM.

`C/C(CC(=O)Nc1ccc([N+](=O)[O-])cc1)=N/N=C(N)N`: the GI50 was inactive: > 100 µM.

As to `CC(=O)OC1C(C)OC(OC(=O)C2CCC3C(C2)OC2(CC(OC(=O)/C=C/c4ccccc4)C(C)CO2)C32CO2)C(OC2OC(C)C(O)C(OC(C)=O)C2O)C1O` (configuration not stated), the GI50 is active: < 0.01 µM.

With `CC(=O)n1[nH]c(=O)n(-c2ccccc2)c1=O`, the GI50 was inactive: > 100 µM.

Consider `C[C@]12Cc3conc3C(O)=C1CC[C@@H]1C2CC[C@@]2(C)C1CC[C@@H]2O` (some centres not stated), for which the GI50 is inactive: 19.9 µM.

On to `COc1cc2c(cc1OCc1ccccc1)NC(=O)[C@@H]1C[C@@H](O)CN1C2=O`, for which the GI50 is inactive: > 100 µM.

Turning to `CCOC(=O)C1=NN(c2ccccc2)C2=CC(C)=NN(C)C(=S)N21`, the GI50 was inactive: > 100 µM.

As for `CCC(=O)Nc1ccc(N2C(=O)/C(=C/c3ccc(O)c(OC)c3)N=C2c2ccccc2)cc1`, the GI50 was inactive: 17.7 µM.

With `N#Cc1ccc2cc3c(cc2c1)OCO3`, the GI50 is inactive: 46.5 µM.

Turning to `Cc1cccc2nc3c(=O)[nH]c(=O)nc-3n(C)c12`, the GI50 was inactive: > 100 µM.

In the case of `CC(C)(C)OC(=O)N1CC(C)(C)N2C(=O)C3(CCCO3)C12` (configuration not stated), the GI50 was inactive: > 100 µM.

Regarding `C=C(CO)[C@H]1Oc2ccc(C(C)=O)cc2[C@@H]1O`, the GI50 was inactive: > 100 µM.

In the case of `OC1=CN=C(C2CC2)Oc2ccccc21`, the GI50 was inactive: > 100 µM.

With `Cc1c(-c2ccccc2)c(C#N)c2nnn(-c3ccc(Cl)cc3)c(=O)n12`, the GI50 was inactive: > 100 µM.

Regarding `COC(=O)CC(C(C(=O)OCc1ccccc1)C(C)O)N1C(=O)OC(c2ccccc2)C1c1ccccc1` (configuration not stated), the GI50 is inactive: > 100 µM.

For `CC(=O)O[C@H]1C[C@H]2[C@@H]([C@H](OC(C)=O)C[C@@H]3CC4(CC[C@@]32C)OOC2(CCCCC2)OO4)[C@@H]2CC[C@H]([C@H](C)CCC(=O)O)[C@@]12C`, the GI50 was inactive: 13.2 µM.

As to `Cc1c(S(=O)(=O)N/C(=N\O)Nc2ccc(Cl)c(Cl)c2)sc2ccc(Cl)cc12`, the GI50 is inactive: 22.4 µM.

For the molecule `C[N+](C)(CCNc1ccc(NCC[N+](C)(C)Cc2ccc([N+](=O)[O-])cc2)c2c1C(=O)c1c(O)ccc(O)c1C2=O)Cc1ccc([N+](=O)[O-])cc1`, the GI50 is inactive: > 50 µM.

As for `COc1ccc(NC(=S)N/N=C2\C(=O)Nc3ccccc32)cc1`, the GI50 was inactive: 24.4 µM.

As for `CC(=O)Oc1ccc2c(C)cc(=O)oc2c1OC(C)=O`, the GI50 was inactive: 29.5 µM.
